# Results as given in publication PMC12040169 (PLOS Biology, 2025).
# The list shows a part of the results.
# Test system: T1, C. trachomatis L2/434/Bu expressing GFP (CTL2-GFP)
# T1 construct: L2/434/Bu GFP intracellular growth in HeLa cells
# Design: species or system HeLa; C. trachomatis total inclusion area by high-content imaging, normalised to DMSO
# Conditions: total inclusion area; 28.5 h, 10 µM; inhibitor
# In short: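 Host cell viability was gauged from Hoechst-stained nuclei counts, while chlamydial growth was taken from total inclusion area and inclusion number per well. Cells were fixed and imaged by high-content microscopy once bulk GFP and resorufin fluorescence had been measured.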
row,SMILES,% of control remaining
1,CCNC(=O)C(C)NC(=O)c1cnn(-c2ccc(Br)cc2)c1C (stereo not drawn) [CBK305021],101.158
2,OCCn1ncc2c(NCc3ccc(-n4cccn4)nc3)ncnc21 [CBK306326],20.2827
3,Cc1cccc(CN2CCC(NC(=O)NCc3ccn(C)c3)CC2)c1 [CBK305259],80.6062
4,COc1ccc(OCC(=O)N/N=C/c2ccc([N+](=O)[O-])s2)c(I)c1 [CBK261374],77.1207
5,Cc1ccc(OCC(O)CN2CCC(C(N)=O)CC2)cc1C (stereo not drawn) [CBK057100],60.2969
6,O=C1NCC(C2CCN(Cc3ccccc3)CC2)Oc2ccccc21 (stereo not drawn) [CBK282314],106.297
7,O=C(NC(=S)Nc1ccccc1)c1cncc(Br)c1 [CBK092040],74.8017
8,CC(C)CSc1nnc(-c2ccccc2F)n1CC(C)C [CBK200091],100.536
9,COCCCN(Cc1ccccn1)Cc1cccc(F)c1F [CBK282947],104.351
10,CC(C)Nc1nccnc1Sc1cccc(C(=O)O)c1 [CBK093581],84.184
11,COc1ccc(NC(=O)c2cnn3c2NC(C(=O)O)=CC3c2ccccc2)cc1 (stereo not drawn) [CBK287240],91.0311
12,Cn1cnnc1SC1c2cccc3cccc(c23)C1NS(=O)(=O)c1ccc(Cl)cc1 (stereo not drawn) [CBK264707],101.398
13,Cc1nc2ncccn2c1-c1csc(Nc2ccc(S(N)(=O)=O)cc2)n1 [CBK263294B],38.9101
14,COc1ccc2cc(/C=N/NC(=O)CN3CCCCC3)c(Cl)nc2c1 [CBK018181],95.8231
15,Cc1ccccc1C(c1cnccn1)N(C)C(=O)C1CCN(C(=O)c2ccccc2)CC1 (stereo not drawn) [CBK060208],101.569
16,CCCCOc1ccc(-c2nc(SCC(=O)O)c3c4c(sc3n2)COC(C)(C)C4)cc1 [CBK267716],116.874
17,O=C(COc1cccc(Cl)c1)N/N=C\c1ccc(C(=O)O)cc1 [CBK262293],91.8936
18,CNC(=O)C(NC(=S)NC(=O)c1ccc(F)cc1)C(C)(C)C (stereo not drawn) [CBK021945],85.1395
19,CCNC(=O)C1CCN(C(=O)c2coc(COc3cccc(F)c3)n2)C1 (stereo not drawn) [CBK307466],55.1118
20,CCOC(=O)c1[nH]c2ccccc2c1NS(=O)(=O)c1cccc(Cl)c1C [CBK047423],78.1879
21,COc1cccc2cc(C(=O)C3=C(O)C(=O)N(CCCN4CCOCC4)C3c3ccc(C)cc3)oc12 (stereo not drawn) [CBK266420],92.6371
22,O=C(C1CC1)N1CCC2(CC1)Nc1ccccc1-n1cccc12 [CBK284011],92.134
23,Cc1csc2ncc(C(=O)Nc3ccc(F)c(Cl)c3)c(=O)n12 [CBK287460],76.0712
24,Cc1nc2ccc(C(=O)N3CCN(C(=O)c4ccc(Cl)cc4)CC3)cc2nc1C [CBK296647],107.706
25,COc1ccccc1C(NC(=O)C1CCN(CCn2cnc3c2c(=O)n(C)c(=O)n3C)CC1)c1ccccn1 (stereo not drawn) [CBK147939],99.6024
26,CCOc1cc(CNCc2ccc(C(=O)O)cc2)ccc1OC [CBK270029C],92.7918

row,SMILES,% of control remaining
1,Cc1nc(NC(=O)c2c(F)cccc2F)sc1C [CBK300495],101.649
2,COc1cccc2c1ncc1c(=O)nc(N)sc12 [CBK291241],106.749
3,C=CCC1(CC=C)CCN1C(=O)Cc1c(C)nc(SC)[nH]c1=O [CBK282661],122.537
4,Cc1nc(N/N=C/c2ccc3c(c2)OCO3)sc1C [CBK263098],87.5603
5,O=C(CSc1ncn(-c2ccccc2)n1)Nc1cc(Cl)cc(Cl)c1 [CBK268261],101.497
6,O=C(Cc1ccc([N+](=O)[O-])cc1)Nc1ccc(O)cc1C(=O)O [CBK265977],126.849
7,O=S(=O)(NC1c2cccc3cccc(c23)C1Sc1ccccn1)c1ccc(Cl)cc1 (stereo not drawn) [CBK264073],110.786
8,O=C(c1cnn(-c2ccc(Cl)cc2)c1C(F)(F)F)N1CCN(c2ncccn2)CC1 [CBK107448],117.77
9,O=C(O)CCC(=O)NCCc1ccc(Cl)cc1 [CBK287165],103.322
10,O=C(c1ccccc1F)N1CC2CCCC(C1)C2N1CCOCC1 (stereo not drawn) [CBK285262],87.2715
11,Cc1cn([C@H]2C[C@@H](O)[C@@H](CO)O2)c(=O)n(CCC#N)c1=O [CBK201322],73.6167
12,Cc1cc(CN2CC3CCCN3C[C@@H]2C)c(C)n1CC1CCCO1 (stereo partly drawn) [CBK285419],101.927
13,CCC(Sc1nccn1C)C(=O)Nc1ccc(S(N)(=O)=O)cc1 (stereo not drawn) [CBK058413],90.8686
14,COc1c(Br)cc2c(cc(C)n2-c2ccccc2)c1OCC(O)CNC(C)C (stereo not drawn) [CBK263516],2.0554
15,O=C(Nc1ccc(N2CCOCC2)c2nonc12)c1cc(-c2cccnc2)nc2ccc(Cl)cc12 [CBK267724],95.8808
16,Fc1ccccc1-c1nc2cnccn2c1NCc1cccs1 [CBK282332],108.479
17,COc1ccc(-c2nc3cc(NC(=O)C(c4ccccc4)c4ccccc4)ccc3o2)cc1 [CBK264980],109.138
18,Cc1ccc(C)c(NC(=O)Cc2nc(CN3CCNC(=O)C3)cs2)c1 [CBK305071],127.705
19,CC1=NN(C(=O)C2CC2)C(=O)C1Cc1ccc(F)cc1 (stereo not drawn) [CBK083561],97.1773
20,Cn1cc(C(=O)NC(Cc2cccs2)c2ccccn2)ccc1=O (stereo not drawn) [CBK285209],77.1834
21,COc1cccc(/C=C2/SC(=S)NC2=O)c1OCCCOc1ccc(C)cc1C [CBK264441],113.648
22,CC(C)Nc1cc(OCc2ccc(-c3ccccc3)cc2)ncn1 [CBK115658],80.1343
23,COC(=O)c1ccc(-c2ccc(F)cc2OC)nc1 [CBK149230],99.0191
24,N#Cc1c(C(F)(F)F)cc(-c2cccs2)nc1SCC(O)CN1CCSCC1 (stereo not drawn) [CBK265947],102.122
25,COC(=O)c1cn([C@H]2CO[C@H]3[C@@H]2OC[C@@H]3NC(=O)Nc2cccc(C(F)(F)F)c2)nn1 [CBK289501],95.2856
